According to PubChem BioAssay AID504832 (National Center for Advancing Translational Sciences (NCATS), 2011):
In all, about 310,000 compounds went through this assay and about 18,000 (5.8%) were called active. The inconclusive results got no clear call from the source; some entries with a clear call stand among them for comparison. Calls follow the shape of the dose curve; as a rule, active = well fitted inhibition curve with a large enough effect; inconclusive = small, poorly fitted or top-dose-only effect, or another doubt; inactive = no such curve, though single readings can be large or run the other way. No potency is given beside an inconclusive call; the fits are too rough.

experiment: Primary qHTS for delayed death inhibitors of the malarial parasite plastid, 48 hour incubation; conditions: P. falciparum luciferase growth in erythrocytes; series mostly up to 28.7 µM; activity change, negative = inhibition: at the top concentration
Outline: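 In quantitative HTS format, infected erythrocytes bearing luciferase-reporter parasites were treated for a single generation at 37 C. Luminescence after adding detection reagent served as the growth measure.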
% is scaled to controls: 0 for no effect and ±100 for the full control effect; potency is read from the fitted curve at half-maximal effect; tags tell the direction and shape of the fitted curve.

Row | SMILES | activity change, negative = inhibition | Potency
1 | Cc1cc(NC(C)C)n2c(nc3ccccc32)c1C#N | inactive: -23.9% | –
2 | COC(=O)c1[nH]c2cccc(OC)c2c1NC(=O)CN1CCN(c2cccc(OC)c2)C(C)C1 (stereo not drawn) | – | inconclusive [inhibitor, partial curve]
3 | CC(NC(=O)CSc1nc2c(cc1C#N)CN(C)CC2)c1ccccc1 (stereo not drawn) | – | active: 10.4 µM
4 | COc1ccccc1CN(C)C(=O)c1cccc(S(=O)(=O)N2CCCc3ccccc32)c1 | – | active: 7.38 µM
5 | CC(C)c1nc(CNC(=O)CC2C(=O)NCCN2Cc2cccc(F)c2F)cs1 (stereo not drawn) | – | inconclusive [inhibitor, partial curve, poor fit]
6 | O=C1C2(Cl)C3(Cl)C4(Cl)C(Cl)(Cl)C5(Cl)C3(Cl)C1(Cl)C5(Cl)C24Cl (stereo not drawn) | – | inconclusive [inhibitor, partial curve, poor fit]
7 | COc1cc(CC(=O)Nc2nc(-c3ccccc3)c(C(C)=O)s2)cc(OC)c1OC | – | inconclusive [inhibitor, partial curve]
8 | CC(C)(C)OC(=O)NCc1ccc(CNC(=O)c2[nH]cnc2C(=O)N[C@@H](Cc2ccccc2)C(=O)OCc2ccccc2)cc1 | – | inconclusive [inhibitor, partial curve, poor fit]
9 | CCC(C)(C)NC(=O)C(c1ccc(C)cc1)N(CC1CCCO1)C(=O)CCC(=O)Nc1ccccn1 (stereo not drawn) | – | inconclusive [inhibitor, single point]
10 | COc1ccc(Cn2nnc(C(=O)Nc3ccc(F)cc3)c2N)cc1 | inactive: 16.3% | –
11 | COc1ccc(C2(CNC(=O)c3ccc(OC)c([N+](=O)[O-])c3)CCOCC2)cc1OC | inactive: -7.86% | –
12 | C=CCn1c(N)cc(=O)nc1SC(C)C(=O)Nc1cccc2ccccc12 (stereo not drawn) | – | inconclusive [inhibitor, single point]
13 | COc1ccc(C2CC(=O)C=C(NCCC(C)C)C2)cc1 (stereo not drawn) | – | inconclusive [inhibitor, single point]
14 | Clc1ccc(C[n+]2c(-c3ccccc3)cc(-c3ccccc3)cc2-c2ccccc2)cc1 | – | active: 0.37 µM
15 | Cc1cc(NCc2ccccn2)n2c(nc3ccccc32)c1C#N | – | inconclusive [inhibitor, full curve]
16 | COc1cc(N)c(Cl)cc1C(=O)OCC(=O)N1CCCCCC1 | inactive: 2.04% | –
17 | CN1CCCC(CC2c3ccccc3Sc3ccccc32)C1 (stereo not drawn) | – | active: 9.28 µM
18 | COc1cccc(-n2nc3c(=O)n(Cc4ccccc4Cl)nc(C)c3c2C)c1 | – | inconclusive [inhibitor, partial curve, poor fit]
19 | COc1ccc(N2CCN(c3nc(NCCO)nc(N4CCOCC4)n3)CC2)cc1 | – | inconclusive [inhibitor, partial curve, poor fit]
20 | O=C(Nc1ccc2c(c1)OCO2)C1CCN(S(=O)(=O)Cc2ccccc2)CC1 | – | inconclusive [inhibitor, partial curve, poor fit]
21 | Cc1cc2occ(CC(=O)NNC(=O)c3ccccc3F)c2cc1C | – | inconclusive [inhibitor, single point]
22 | OC(COc1ccc(F)cc1Cl)CN1CCC(Cc2ccccc2)CC1 (stereo not drawn) | – | active: 11.7 µM

Row | SMILES | activity change, negative = inhibition | Potency
23 | Cc1ccccc1CN1C(=O)c2ccccc2Sc2ccc(C(=O)NCCCN3CCOCC3)cc21 | – | inconclusive [inhibitor, partial curve]
24 | CC(C)COc1ccc(-c2nnn(CC(=O)N3CCCC3)n2)cc1 | – | inconclusive [inhibitor, single point]
25 | COc1ccc(-n2c(-c3ccc(Br)cc3)c[n+]3c2CCCCC3)cc1 | – | active: 1.04 µM
26 | COc1ccccc1N1CCN(CC(O)COc2cccc3ccccc23)CC1 (stereo not drawn) | – | inconclusive [inhibitor, single point]
27 | COC(=O)CSc1nc2cc(C)cc(C)c2cc1C#N | inactive: 64.7% | –
28 | Cc1cccc(C)c1OCC(=O)NNC(=S)NC(=O)C1CC1 | – | inconclusive [inhibitor, single point]
29 | CCOC(=O)c1c(C)[nH]c(C(=O)OCc2c(C)noc2C)c1C | – | inconclusive [inhibitor, partial curve, poor fit]
30 | COc1ccc(Nc2cc(C)nc(-n3nc(C)cc3C)n2)cc1 | – | inconclusive [inhibitor, full curve]
31 | O=C(CSc1nc2ccccc2c(=O)n1-c1ccc(F)cc1F)c1c[nH]c2ccccc12 | – | inconclusive [inhibitor, single point]
32 | Cc1nn(-c2ccc(N3CCCCC3)nn2)c(C)c1CCC(=O)Nc1cccc(F)c1 | inactive: 83.7% | –
33 | CCCn1nnnc1NC(=O)c1ccc2ccccc2c1 | inactive: 0.128% | –
34 | CCOC(=O)C1CN(S(=O)(=O)c2ccc(OC)cc2)c2cc(S(=O)(=O)CC)ccc2O1 (stereo not drawn) | – | inconclusive [inhibitor, partial curve]
35 | COCCN(C(=O)COC(=O)/C=C/c1ccc(C(F)(F)F)cc1)c1c(N)n(Cc2ccccc2)c(=O)[nH]c1=O | – | inconclusive [inhibitor, single point]
36 | O=C(COc1ccc(S(=O)(=O)Nc2cccc(C(F)(F)F)c2)cc1)N1CCOCC1 | – | inconclusive [inhibitor, single point]
37 | Cc1ccc(CN2CC(C(=O)NCCCSc3ccccc3)CC2=O)cc1 (stereo not drawn) | inactive: 13.9% | –
38 | COc1ccc(CNC(=O)CN(C(=O)c2csnn2)c2cccc(F)c2)cc1 | inactive: 16.8% | –
39 | O=C(CCn1ccnc1)Nc1cc(Cl)ccc1O | – | inconclusive [inhibitor, single point]
40 | CC(C)Oc1cccc(C(=O)C2CCCN(Cc3cnc(N4CCCC4)s3)C2)c1 (stereo not drawn) | – | inconclusive [inhibitor, single point]
41 | CCOC(=O)C1CCCN(S(=O)(=O)c2cc(Br)cc3c2N(C(=O)CC)CC3)C1 (stereo not drawn) | – | inconclusive [inhibitor, full curve]
42 | CC1(C)O[C@@H]2[C@H](O1)[C@@H](CO)O[C@H]2n1ccc(=O)[nH]c1=O | inactive: 3.54% | –
43 | COCCN1C(=O)c2ccc(C(=O)Nc3cccnc3)cc2C1=O | inactive: 44.8% | –
